# ChEMBL document CHEMBL4888484, “Replenishing the malaria drug discovery pipeline: Screening and hit evaluation of the MMV Hit Generation Library 1 (HGL1) against asexual blood stage Plasmodium falciparum ,using a nano luciferase reporter read-out” (2022)
# The whole screen tested about 150,000 compounds, of which about 540 (0.36%) showed an effect of 50% or more. The list shows a part of the results.
# Test system: Plasmodium falciparum
# Experiment: Primary screen in NF54 nanoGlo assay, in single point, at 2uM, 72h; a lower Z score goes with more inhibition
# Assay type: functional, Erythrocyte
# Details: timepoint 72 hour
Compound,% Inhibition [%],Z score
N[C@H]1CCN(C(=O)Cc2cccc(Cl)c2)C[C@@H]1O,-7,1.54
O=C1CCc2cc(S(=O)(=O)N3Cc4ccccc4C[C@H]3C(=O)N3CCCC3)ccc2N1,-4,0.73
CS(=O)(=O)C1(CNc2ncc(Cl)cc2F)CC1,-4,0.44
O=C1CC[C@@H](C(=O)NCC2(c3cccs3)CCCCC2)N1,-6,0.75
Cc1noc(CCCN(C)Cc2ccccc2Cl)n1,-15,2.32
CCc1nc(CN(C)c2nc(C)cc(C)c2C#N)no1,-2,0.42
CCN1C[C@H](CN(C)C(=O)NCc2cccnc2)Oc2ccccc21,7,-0.88
O=C(O)c1c(NC(=O)c2cccc3ccccc23)sc2c1CCCC2,-8,1.33
CC(C)(C)CN1CCC[C@@]2(CCN(C(=O)Nc3ccccc3Cl)C2)C1=O,-4,0.68
NC(=NCC1CCC1)N1CCN(c2ccccc2F)CC1,2,-0.33
COc1ccc2cc(C(=O)N3CCC(CC(=O)NC4CCCC4)CC3)[nH]c2c1,-14,1.31
CS(=O)(=O)N1CCN(C(=O)N2CCN(c3ccc(C4CC4)nn3)CC2)C1=O,-8,1.63
CCn1cc(C(=O)N2CCC[C@H](c3[nH]ncc3-c3ccc(F)cc3)C2)c(C)n1,3,-0.66
CC(C)(C)OC(=O)N[C@@]1(c2noc(C3CCC3)n2)CCOC1,0,0.01
COc1ccc(CN[C@H]2CCCc3nc(N4CCC(CO)CC4)ncc32)cc1C,-16,2.3
O=C(c1ccc(F)c(F)c1F)N1CC[C@H](c2ncon2)C1,-10,1.76
Cc1ccc(C(=O)N2CC(C)CC(C)C2)cc1NCc1c[nH]nc1C (stereo not given),-1,0.17
CCCc1nc(C)c(CNS(=O)(=O)c2cc(-c3ccno3)oc2C)s1,-16,2.74
COc1cc(OC)cc(-n2nnnc2CN(C)CC2CC2)c1,4,-0.8
O=C(N[C@H]1CCCCNC1=O)c1csc2c1CCCC2,7,-0.89
CCOc1ccc(-c2nc(-c3cccc(-c4ccn[nH]4)c3)no2)cc1OCC,-4,0.48
OC(CN(Cc1ccccc1)CC1CCOC1)c1ccco1 (stereo not given),-3,0.39
CN(CC(=O)N1CCC(O)CC1)Cc1ccc(Oc2ccccc2)o1,-10,0.89
Cc1nccc(CNC(=O)c2cc(Br)cc3[nH]cnc23)n1,-9,0.85
CCOCC1(CNc2nc3c(s2)c(C)nn3C)CCC1,1,-0.14
COc1ccccc1N1CCN(C(=O)c2cn3c4c(cccc4c2=O)CCC3)CC1,10,-1.39
CN(C)c1cccc(Oc2nnnn2[C@H]2CO[C@H]3[C@@H]2OC[C@@H]3NC(=O)COc2ccccc2)c1,-11,1.47
Cc1cccc(NC(=O)c2cc(N3CCCC3)ncn2)c1C,0,0.07

Compound,% Inhibition [%],Z score
CCCCCc1nnc(NC(=O)NC[C@H](O)c2nccn2C)s1,-1,0.13
Cc1nc(C(=O)N2CCCCCCC2)cs1,-2,0.37
CCOCCN(C)C(=O)C[C@H](C)c1ccc(F)cc1,-1,0.14
C[C@@H](C(=O)Nc1nncs1)N(C)C/C=C/c1ccccc1,12,-1.59
O=C(c1ccc2c(c1)COCO2)N(CC(F)(F)F)C1CCCC1,-8,1.06
COc1cccc(CN2CCCN(c3ccc(NC(=O)C4CCC4)cc3)C2=O)c1,-8,0.76
CCc1nn(C)c(Cl)c1CN1CCC2(CC1)CNc1ccccc12,-2,0.36
OC1CCCCC1Nc1cnc2ccccc2n1 (stereo not given),0,0.01
CCc1cc(C(=O)N2C[C@H]3CC[C@@H](C2)N(Cc2c(C)noc2C)C3=O)n(C)n1,-11,1.06
CCN1CCOC(C(=O)N2CCCC(COc3ccccc3)C2)C1 (stereo not given),-11,1.91
O=C(NCc1ccc(N2CCOCC2)cc1)c1cn(Cc2c(F)cccc2F)nn1,-15,2.12
CCN1C(=O)CO[C@H](C(=O)N2CC(=O)Nc3ccccc3C2)[C@H]1c1cnn(C)c1,-24,2.62
COc1ncccc1C(=O)N1CCC[C@@]2(C1)OC(=O)c1ccccc12,-6,1.18
Cc1nc(NC2CCC3(CC2)NC(=O)NC3=O)ccc1C#N (stereo not given),-3,0.39
Brc1ccccc1COc1ccc2ccccc2n1,29,-3.79
Cc1ccc([C@@H]2COCCN2Cc2cccc(C(=O)O)c2Cl)o1,-3,0.55
Cn1cc(-c2nc3ncccc3[nH]2)c(-c2ccc(Oc3ccccc3)cc2)n1,3,-0.48
CS(=O)(=O)N(CCCC(=O)NCc1ccc2c(c1)OCO2)c1ccc(F)cc1,39,-5.62
CCC(C)[C@@H](NC(=O)Nc1ccccc1C)C(=O)OC (stereo not given in full),-5,0.68
COCCS(=O)(=O)NCC1CCCCC1,-3,0.43
COc1ccc(N2Cc3nn(CC(=O)N4CCN(c5ccccc5)CC4)c(=O)n3C2=O)cc1,-11,1.23
COc1cccn([C@@H](C)C(=O)N2CCCC2)c1=O,-9,1.33
C=CCN1C[C@@H](C(=O)N2CCn3nc(Cc4ccccc4)cc3C2)CC1=O,11,-1.54
O=C(Nc1ccnn1C1CCC1)N[C@H]1C[C@H](c2ccc(F)cc2F)C1,13,-2.43
N#Cc1cc(OCC(F)F)nc2ccccc12,-5,0.76
O=C(NCCOc1ccccc1)c1cn2c(n1)[C@@H](c1ccccc1)N(CC1CC1)CC2,-4,0.5
NC(=O)N1CCCN(CC=Cc2ccc(F)cc2)CC1,-5,0.65
